# The whole screen tested about 420,000 compounds, of which about 64,000 (15%) were called active. The inconclusive results got no clear call from the source; some entries with a clear call stand among them for comparison. Calls follow the shape of the dose curve; as a rule, active = well fitted inhibition curve with a large enough effect; inconclusive = small, poorly fitted or top-dose-only effect; inactive = flat fitted curve, though single readings scatter. No potency is given beside an inconclusive call; the fits are too rough.
# Experiment: qHTS for Inhibitors of human tyrosyl-DNA phosphodiesterase 1 (TDP1): qHTS in cells in absence of CPT; also: nearly all actives have a fitted effect of over 55% in size
# Details: DT40 Tdp1-/- hTDP1 cells, no CPT, ATP luminescence, 48 h; activity change, negative = growth inhibition: at 46.2 µM (top of the series) unless noted
# Procedure, shortened: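 Readout: luminescence from CellTiter-Glo after 30 min in the dark at RT. Cells: DT40 Tdp1-/- with stable hTDP1, 400/well. Exposure: compounds alone, ≥48 hr, 37 °C.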
# % is scaled to controls: 0 for no effect and ±100 for the full control effect; potency is read from the fitted curve at half-maximal effect; tags tell the direction and shape of the fitted curve.
SMILES,Potency,"activity change, negative = growth inhibition"
CC(C)c1ccc(NC(=O)CN2C(=O)CSc3ccc(S(=O)(=O)N4CCCC4)cc32)cc1,active: 16.4 µM,
Cc1nc(SCc2nc3ccccc3[nH]2)c2oc3ccccc3c2n1,"inconclusive [inhibitor, single point]",
CCOc1ccc(Nc2c3c(nc4ncnn24)CC(C)CC3)cc1 (centres undefined),"inconclusive [inhibitor, single point]",
CCCCNc1c2c3c(cccc3n(C)c1=O)C(=O)c1ccccc1-2,active: 18.4 µM,
CC(C)CC(=O)Nc1ccnn1C1CCN(C(=O)c2ccc(F)cc2Cl)CC1,"inconclusive [inhibitor, partial curve]",
CSc1nsc(SCC(=O)Nc2cccc(C(=O)O)c2)n1,,inactive: -1.53%
CCOc1ccc(S(=O)(=O)Nc2ccc(C(=O)NCCCN3CCCC3=O)cc2)cc1,"inconclusive [inhibitor, single point]",
COc1ccc(N=c2oc3cc(O)ccc3cc2C(=O)NCC2CCCO2)cc1 (centres undefined),,inconclusive: -24.9% [inhibitor]
Cc1cc(C)n2cc(CSc3ccc(Cl)cc3)nc2n1,"inconclusive [inhibitor, single point]",
O=C1c2ccccc2C(=Cc2cccnc2)c2ccccc21,"inconclusive [inhibitor, single point]",
CC(C)CC(NC(=O)C1CCCCC1)C(=O)Nc1cccc(C(F)(F)F)c1 (centres undefined),,inactive: -25.4%
O=C(CN(Cc1ccco1)S(=O)(=O)c1cccs1)Nc1ccccc1C(F)(F)F,"inconclusive [inhibitor, partial curve]",
O=C(CN1C(=O)C2CC=C(Cl)CC2C1=O)N1CCOCC1 (centres undefined),,inactive: 7%
OC1c2c(F)cccc2N=C2CCCCCN21 (centres undefined),"inconclusive [inhibitor, single point]",
CC1CN(C(=S)SCC(=O)c2ccc([N+](=O)[O-])cc2)CC(C)O1 (centres undefined),active: 5.17 µM,
Fc1ccccc1/C=N/n1cc(-c2ccccc2)[nH]c1=S,active: 8.2 µM,
COc1ccc(Oc2nnnn2-c2ccccc2)cc1,,inactive: -3.74%
O=C(Nc1ccccc1Oc1cccnc1)C1CCCN(C/C=C/c2ccc(F)cc2)C1 (centres undefined),"inconclusive [inhibitor, single point]",
Cc1cc(C)c(-n2nnnc2SCC(=O)c2cc3ccccc3o2)c(C)c1,"inconclusive [inhibitor, partial curve]",
Cc1ccc(Cl)cc1N1CCN(C(=O)c2nn(C)c3c2CS(=O)(=O)c2ccccc2-3)CC1,active: 11.6 µM,
O=C(NC(=S)NC1C2CC3CC(C2)CC1C3)c1ccccc1 (centres undefined),"inconclusive [inhibitor, single point]",
COc1cc(S(=O)(=O)N2CCN(C(=O)c3ccccc3)CC2)c(OC)cc1Br,"inconclusive [inhibitor, single point]",
Cn1cc(-c2csc(C(O)c3ccc(F)c(F)c3)n2)cn1 (centres undefined),"inconclusive [inhibitor, single point]",

SMILES,Potency,"activity change, negative = growth inhibition"
COc1ccc(OC)c(S(=O)(=O)N(C)CC(=O)Nc2ccccc2OC)c1,"inconclusive [inhibitor, partial curve, poor fit]",
O=C(COC(=O)c1ccc(Br)o1)Nc1ccc2[nH]c(=O)[nH]c2c1,"inconclusive [inhibitor, single point]",
O=C(NC(=S)NC(=O)c1ccccc1F)c1ccccc1F,"inconclusive [inhibitor, single point]",
COc1ccc(NC(C)C(=O)N/N=C/c2ccccc2OCc2ccc(Br)cc2)cc1 (centres undefined),active: 22.4 µM,
Cc1ccccc1N/C(SCc1ccc(Cl)cc1)=C(/C#N)C(N)=O,"inconclusive [inhibitor, single point]",
CCc1ccc(NC(=O)c2ccc(NS(=O)(=O)c3c(C)noc3C)cc2)cc1,"inconclusive [inhibitor, single point]",
Cc1ccc(S(=O)(=O)Nc2ccccc2N=Cc2c(F)c(F)c(F)c(F)c2F)cc1,"inconclusive [inhibitor, single point]",
COc1ccc(OCC(=O)N/N=C(\C)CC(=O)Nc2cccc([N+](=O)[O-])c2)cc1,,inactive: 3.12%
CC1(C)OC(=O)C2=C(C[C@@H](C3CC3)O[C@H]2CCc2cccc(Cl)c2)O1,"inconclusive [inhibitor, single point]",
CCCNc1nc(-c2cc(-c3ccc(Cl)cc3)on2)cc(C(C)C)n1,"inconclusive [inhibitor, single point]",
O=C(CCn1c(=O)[nH]c2ccccc2c1=O)NCCCN1CCN(c2cccc(Cl)c2)CC1,"inconclusive [inhibitor, single point]",
CC(Nc1cc(=O)n(C)c(=O)[nH]1)c1ccccc1 (centres undefined),,inactive: -20.2%
Cc1cccc(C)c1OCc1cc(C(=O)NCc2cn(C)nc2C)no1,"inconclusive [inhibitor, single point]",
Cc1cccc(N2CCN(C(=O)c3cccn3-c3nnc(N4CCCCC4)s3)CC2)c1C,active: 23.1 µM,
O=C1/C(=C/c2ccc(O)c(O)c2)Oc2cc(O)ccc21,"inconclusive [inhibitor, single point]",
Cc1ccc(C(=O)/C=C/c2cc(C#N)n(C)c2C)cc1,"inconclusive [inhibitor, single point]",
Nc1ncc(-c2ccccc2)c(-c2ccc(O)cc2O)n1,"inconclusive [inhibitor, single point]",
COc1ccc(C)cc1NS(=O)(=O)c1ccccc1,,inconclusive: -33.5% [inhibitor]
COc1ccc(C(=O)OC(COc2ccccc2)Cn2ccnc2)cc1 (centres undefined),"inconclusive [inhibitor, single point]",
CC(C)OC(=O)c1cccnc1N1CCN(c2cccc(Cl)c2)CC1,active: 16.4 µM,
O=C(COc1ccc(NS(=O)(=O)c2ccc(F)cc2)cc1)N1CCOCC1,,inactive: -20.5%
O=c1c2c3c(sc2ncn1-n1cccc1)CCCCC3,,inconclusive: -35.1% [inhibitor]
CN1CCN(C2=C(NS(=O)(=O)c3ccccc3)C(=O)c3ccccc3C2=O)CC1,"inconclusive [inhibitor, single point]",

SMILES,Potency,"activity change, negative = growth inhibition"
O=C(Cc1ccc(Cl)cc1)N/N=C1\CCCc2ccccc21,active: 23.1 µM,
COCCn1c(CN(C)Cc2ccccc2)nc2c1c(=O)n(C)c(=O)n2C,"inconclusive [inhibitor, partial curve, poor fit]",
CNC(=O)N1c2ccccc2CCc2ccccc21,"inconclusive [inhibitor, single point]",
O=[N+]([O-])c1ccc(Nc2ccccc2O)c([N+](=O)[O-])c1,"inconclusive [inhibitor, single point]",
CC(=O)c1ccc(NC(=O)CSc2nccn2CCc2ccccc2)cc1,"inconclusive [inhibitor, single point]",
CCN(CC(=O)Nc1ccc(N2CCOCC2)cc1)C(=O)COc1ccccc1OC,,inactive: -1.78%
CCc1cccc(C)c1NC(=O)c1cc(S(=O)(=O)N2CCCCCC2)cn1C,"inconclusive [inhibitor, partial curve, poor fit]",
CCCCCCCNC(=O)C1(CC2CC(c3ccc(Cl)cc3)=NO2)CCN(C(=O)c2cc(OCC)c(OCC)c(OCC)c2)CC1 (centres undefined),active: 10.3 µM,
COc1ccc(-c2cc(C(C)=O)c(C)n2CCC(=O)Nc2ccc(C)c(Cl)c2)cc1,active: 18.4 µM,
COC(=O)Cc1ccc(NC(=S)Nc2ccc(N3CCOCC3)cc2)cc1,,inconclusive: -45.9% [inhibitor]
CC(C)n1c(O)c(N=NC(=O)Cn2ccc(C(F)(F)F)n2)c2ccccc21,active: 8.2 µM,
COc1ccc(NC(=O)CCn2c(-c3ccc(F)cc3)cc(C(C)=O)c2C)c(OC)c1,"inconclusive [inhibitor, single point]",
COc1cccc(NC(=O)N(C)C[C@H]2Oc3ncc(Br)cc3C(=O)N([C@H](C)CO)C[C@H]2C)c1,"inconclusive [inhibitor, single point]",
O=[N+]([O-])c1cccc(-c2cn(-c3ccccc3)c(=S)[nH]2)c1,,inactive: -27.9%
CCc1ccc(CNC(=O)c2sc3nc[nH]c(=O)c3c2C)cc1,"inconclusive [inhibitor, single point]",
COc1ccc([C@H]2C[C@@H](n3cc(-c4ccc(F)cc4)nn3)[C@H](O)CN2CC2CCCCC2)cc1,"inconclusive [inhibitor, single point]",
Cc1c(Cc2ccc3c(c2)OCO3)sc(NC(=O)c2ccccc2)c1C(N)=O,"inconclusive [inhibitor, single point]",
CCC(C)[C@H](NC(=O)[C@@H]1CSC2c3ccccc3C(=O)N21)C(=O)NCc1ccncc1 (some centres undefined),,inactive: 34.4%
Cc1cccc(NC(=O)c2ccc(Cl)c(S(=O)(=O)N3CCc4ccccc43)c2)n1,"inconclusive [inhibitor, single point]",
Cc1ccc(C(=O)N2C(=O)c3cccc(N)c3C2=O)o1,,inactive: -3.38%
O=C(Nc1ccncc1)Nc1ccncc1,"inconclusive [inhibitor, single point]",
CCOc1ccc(/C=C/C(=O)N(CC)CC(=O)NCc2cccs2)cc1OC,"inconclusive [inhibitor, single point]",
CC(NC(=O)c1cc(-c2ccncc2)nc2ccc(Br)cc12)C1CCCO1 (centres undefined),,inactive: -27.6%
